According to PubChem BioAssay AID206 (DTP/NCI, 2004):
Records with an inconclusive call do not appear. Certain results were filed several times, with different values. The list is limited to them. There may be further records. Values that stand side by side are repeats (runs, samples, wells, individuals or studies). Marks such as (2×) stand for listed records that agree.

System: nude mice, HT29 intrarenal xenograft, tumor weight T/C
Assay: NCI In Vivo Anticancer Drug Screen. Data for tumor model HT29;CX-1 Human Adenocarcinoma (MER+) (intrarenal inoculation) in NU/NU Swiss (nude) mice
Details: endpoint: mean tumor weight change, higher = larger tumour
Procedure: The antitumor activity of compounds was measured in mice bearing transplantable tumors. Survival or tumor size were measured and the results are expressed as the measurement made in the treated group (T) divided by the measurement made in the vehicle treated control group (C). The tumor model used in this assay is HT29;CX-1 Human Adenocarcinoma (MER+) (intrarenal inoculation) in NU/NU Swiss (nude) mice

[1] = dose: 400.0 mg/kg/injection, schedule: Q04DX004 (sc), vehicle: saline with Tween-80
[2] = dose: 37.5 mg/kg/injection, schedule: Q04DX004 (sc), vehicle: saline with Tween-80

Compound: COP12(OCCO1)SC(C(F)(F)F)=C(C(F)(F)F)S2
- T/C (dose: 125.0 mg/kg/injection, schedule: Q04DX004 (sc), vehicle: saline with Tween-80): -11 % of control, 68 % of control, 95 % of control
- T/C (dose: 250.0 mg/kg/injection, schedule: Q04DX004 (sc), vehicle: saline with Tween-80): 6 % of control, 46 % of control, 99 % of control
- T/C (dose: 500.0 mg/kg/injection, schedule: Q04DX004 (sc), vehicle: saline with Tween-80): 13 % of control, 84 % of control, 155 % of control
- T/C (dose: 1000.0 mg/kg/injection, schedule: Q04DX004 (sc), vehicle: saline with Tween-80): 44 % of control and 121 % of control

Compound: CCCCCC(O)C1C(=O)OC(C)C(O)/C=C/C=C/C=C/C=C\C=C(\C)C(O)CC(O)CC(O)CC(O)CC(O)CC(O)CC1O (stereo not drawn)
- T/C (dose: 300.0 mg/kg/injection, schedule: Q04DX004 (sc), vehicle: distilled water + alcohol): 40 % of control and 86 % of control

Compound: O=C1NC2(CCCCC2)C(=O)N1CCN(CCCl)CCCl
- T/C (dose: 12.0 mg/kg/injection, schedule: Q01DX010 (sc), vehicle: saline): 66 % of control and 159 % of control

Compound: Nc1nc2ccc(NCc3ccc(C(=O)NC(CCC(=O)O)C(=O)O)cc3)cc2c(=O)[nH]1 (stereo not drawn)
- T/C [1]: 13 % of control and 62 % of control

Compound: C[C@]12C=CC(=O)C=C1CC[C@@H]1[C@@H]2C(=O)C[C@@]2(C)[C@H]1CC[C@]2(O)C(=O)CO
- T/C (dose: 300.0 mg/kg/injection, schedule: Q04DX004 (sc), vehicle: Klucel (hydroxypropylcellulose) (HPC)): 14 % of control, 24 % of control, 44 % of control

Compound: CC[C@@]1(O)C[C@H](OC2CC(N(C)C)C(OC3CC(O)C(OC4CCC(=O)C(C)O4)C(C)O3)C(C)O2)c2c(cc3c(c2O)C(=O)c2c(O)cccc2C3=O)[C@H]1C(=O)OC (stereo partly drawn)
- T/C (dose: 1.0 mg/kg/injection, schedule: Q01DX010 (ip), vehicle: water): 3 % of control and 56 % of control
- T/C (dose: 2.0 mg/kg/injection, schedule: Q01DX010 (ip), vehicle: water): -31 % of control and 39 % of control

Compound: OC(CBr)C(O)C(O)C(O)CBr (stereo not drawn)
- T/C (dose: 60.0 mg/kg/injection, schedule: Q01DX010 (sc), vehicle: Klucel (hydroxypropylcellulose) (HPC)): 34 % of control and 116 % of control

Compound: COC(=O)C(F)C(Br)C(=O)OC (stereo not drawn)
- T/C (dose: 75.0 mg/kg/injection, schedule: Q04DX004 (sc), vehicle: saline with Tween-80): 63 % of control and 295 % of control

Compound: O=P1(N(CCCl)CCCl)NCCCO1 (stereo not drawn)
- T/C (dose: 12.5 mg/kg/injection, schedule: Q01DX010 (sc), vehicle: saline): 83 % of control and 265 % of control
- T/C (dose: 25.0 mg/kg/injection, schedule: Q01DX010 (sc), vehicle: saline): 53 % of control, 111 % of control, 113 % of control

Compound: CC1CN1C(=O)NCCCCCCNC(=O)N1CC1C (stereo not drawn)
- T/C (dose: 20.0 mg/kg/injection, schedule: Q04DX004 (sc), vehicle: Klucel (hydroxypropylcellulose) (HPC)): 15 % of control and 120 % of control

Compound: CCNC(=O)OCc1c(COC(=O)NCC)c(-c2ccc(Cl)c(Cl)c2)n2c1CCC2
- T/C [2]: 80 % of control (2×) and 118 % of control

Compound: CN1c2c(nc(N)[nH]c2=O)NCC1CCNc1ccc(C(=O)NC(CCC(=O)O)C(=O)O)cc1 (stereo not drawn)
- T/C (dose: 200.0 mg/kg/injection, schedule: Q01DX010 (sc), vehicle: saline): 57 % of control and 107 % of control

Compound: BrCC[Se]c1ccccc1
- T/C (dose: 50.0 mg/kg/injection, schedule: Q04DX004 (sc), vehicle: saline with Tween-80): 19 % of control and 91 % of control
- T/C (dose: 100.0 mg/kg/injection, schedule: Q04DX004 (sc), vehicle: saline with Tween-80): 34 % of control and 159 % of control
- T/C [1]: 38 % of control, 73 % of control, 111 % of control

Compound: C=CC(=O)NCNC(=O)C=C
- T/C (dose: 50.0 mg/kg/injection, schedule: Q01DX010 (sc), vehicle: saline): -20 % of control, 66 % of control, 73 % of control

Compound: O=c1[nH]cc(F)c(=O)[nH]1
- T/C (dose: 10.0 mg/kg/injection, schedule: Q01DX010 (sc), vehicle: saline): 59 % of control and 112 % of control

Compound: Nc1nc(=S)c2[nH]cnc2[nH]1
- T/C (dose: 1.56 mg/kg/injection, schedule: Q01DX010 (sc), vehicle: Klucel (hydroxypropylcellulose) (HPC)): 94 % of control and 185 % of control

Compound: C1CC[N-]CC1.[Cl][Pt+2][Cl].[NH-]C1CC1
- T/C (dose: 12.5 mg/kg/injection, schedule: Q04DX004 (sc), vehicle: water): 80 % of control and 153 % of control
- T/C (dose: 25.0 mg/kg/injection, schedule: Q04DX004 (sc), vehicle: water): 42 % of control and 84 % of control

Compound: Oc1c(Cl)cc(Cl)cc1C1N2CCCCC2C2c3cccn3-c3ccccc3N21 (stereo not drawn)
- T/C (dose: 75.0 mg/kg/injection, schedule: Q04DX004 (sc), vehicle: Klucel (hydroxypropylcellulose) (HPC)): 38 % of control, 46 % of control, 150 % of control

Compound: Nc1nc(-c2cccc3ccccc23)cc2ccccc12
- T/C (dose: 800.0 mg/kg/injection, schedule: Q04DX004 (sc), vehicle: saline with Tween-80): 32 % of control and 68 % of control

Compound: O=C(O)C1(C(=O)O)CCC1.[NH2-].[NH2-].[Pt+2]
- T/C (dose: 12.5 mg/kg/injection, schedule: Q01DX010 (sc), vehicle: dextrose): 39 % of control and 97 % of control

Compound: CN(C)C=O
- T/C (dose: 800.0 mg/kg/injection, schedule: Q01DX010 (sc), vehicle: saline): 43 % of control and 75 % of control
- T/C (dose: 1600.0 mg/kg/injection, schedule: Q01DX010 (sc), vehicle: saline): 48 % of control and 77 % of control

Compound: COc1cccc2c1C(=O)c1c(O)c3c(c(O)c1C2=O)C[C@@](O)(C(C)=O)C[C@@H]3OC1CC(N(Cc2ccccc2)Cc2ccccc2)C(O)C(C)O1 (stereo partly drawn)
- T/C (dose: 125.0 mg/kg/injection, schedule: Q04DX004 (sc), vehicle: water): 78 % of control and 113 % of control

Compound: COC(=O)[C@@]12OC[C@]34[C@H]([C@@H](O)[C@@H]1O)[C@@]1(C)CC(=O)C(O)=C(C)[C@@H]1C[C@H]3OC(=O)[C@H](OC(=O)/C=C(\C)C(C)C)[C@@H]24
- T/C (dose: 0.5 mg/kg/injection, schedule: Q04DX004 (sc), vehicle: saline + alcohol): 89 % of control and 119 % of control

Compound: CCCCCCCCCCCCCCCC(=O)OCC1OC(n2ccc(N)nc2=O)C(O)C1O (stereo not drawn)
- T/C [2]: 38 % of control and 79 % of control

Compound: COc1ccc(S(=O)(=O)N/N=C/C(=O)O)cc1
- T/C (dose: 200.0 mg/kg/injection, schedule: Q04DX004 (sc), vehicle: saline with Tween-80): 64 % of control, 88 % of control, 103 % of control
- T/C [1]: 22 % of control and 63 % of control

Compound: COc1ccc(S(=O)(=O)N=N/C=C2\C=CC=CN2O)cc1OC
- T/C (dose: 150.0 mg/kg/injection, schedule: Q04DX004 (sc), vehicle: saline with Tween-80): 69 % of control and 167 % of control

Compound: CC(=O)O[C@H]1C(=O)[C@@]2(C)[C@H]([C@H](OC(=O)c3ccccc3)[C@]3(O)C[C@H](OC(=O)[C@H](O)[C@@H](NC(=O)c4ccccc4)c4ccccc4)C(C)=C1C3(C)C)[C@]1(OC(C)=O)CO[C@@H]1C[C@@H]2O
- T/C (dose: 50.0 mg/kg/injection, schedule: Q01DX010 (sc), vehicle: Klucel (hydroxypropylcellulose) (HPC)): 8 % of control, 38 % of control, 42 % of control
- T/C (dose: 100.0 mg/kg/injection, schedule: Q01DX010 (sc), vehicle: Klucel (hydroxypropylcellulose) (HPC)): 12 % of control, 32 % of control, 43 % of control
- T/C (dose: 200.0 mg/kg/injection, schedule: Q01DX010 (sc), vehicle: Klucel (hydroxypropylcellulose) (HPC)): -6 % of control, 26 % of control, 44 % of control

Compound: CCC1(O)CC2CN(CCc3c([nH]c4ccccc34)C(C(=O)OC)(c3cc4c(cc3OC)N(C)C3C(O)(C(N)=O)C(O)C5(CC)C=CCN6CCC43C65)C2)C1 (stereo not drawn) (tested in a mixture with another compound)
- T/C (dose: 3.0 mg/kg/injection, schedule: Q04DX004 (sc), vehicle: water): 18 % of control, 40 % of control, 75 % of control
- T/C (dose: 6.0 mg/kg/injection, schedule: Q04DX004 (sc), vehicle: water): -14 % of control, 2 % of control, 45 % of control

Compound: COc1cccc2c1C(=N)c1c(O)c3c(c(O)c1C2=O)C[C@@](O)(C(C)=O)C[C@@H]3OC1CC(N)C(O)C(C)O1 (stereo partly drawn)
- T/C (dose: 5.0 mg/kg/injection, schedule: Q04DX004 (sc), vehicle: water): 99 % of control and 179 % of control
- T/C (dose: 20.0 mg/kg/injection, schedule: Q04DX004 (sc), vehicle: water): 8 % of control, 78 % of control, 195 % of control

Compound: O=C(O)CCCc1ccc(N(CCCl)CCCl)cc1
- T/C (dose: 4.0 mg/kg/injection, schedule: Q01DX010 (sc), vehicle: saline with Tween-80): 95 % of control, 124 % of control, 440 % of control
- T/C (dose: 8.0 mg/kg/injection, schedule: Q01DX010 (sc), vehicle: saline with Tween-80): 20 % of control, 58 % of control, 112 % of control
- T/C (dose: 16.0 mg/kg/injection, schedule: Q01DX010 (sc), vehicle: saline with Tween-80): 18 % of control and 73 % of control

Compound: C[PH+](C)C.C[PH+](C)C.[Au]
- T/C (dose: 5.0 mg/kg/injection, schedule: Q04DX004 (sc), vehicle: saline): 12 % of control and 88 % of control
- T/C (dose: 10.0 mg/kg/injection, schedule: Q04DX004 (sc), vehicle: saline): 18 % of control and 62 % of control
